The text below walks through data of the supplement of paper PMC9446081.

Among all 39,000 compounds or so, about 220 (0.56%) showed activity. Some of the results follow.
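Note: static incubation at 37 °C against the wild-type strain, values averaged over two biological replicates.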

The subject of this test is Escherichia coli K-12 BW25113. In words: relative growth (OD600 normalised to plate interquartile mean) (fraction); higher = less growth inhibition, active = 0.2 or less. The following applies: 50 µM; LB; incubation time: overnight (16-24 h).
For the compound `Cc1noc(C)c1NC(=O)N(C)C[C@H]1Oc2c(NC(=O)Nc3ccc(C(F)(F)F)cc3)cccc2C(=O)N([C@H](C)CO)C[C@H]1C`, the relative growth is inactive: 0.97.
On to `C[C@H]1CCCCO[C@@H](CN(C)Cc2ccc3c(c2)OCO3)[C@@H](C)CN([C@@H](C)CO)C(=O)c2cc(NC(=O)c3ccccc3)ccc2O1`, for which the relative growth was inactive: 0.983.
Turning to `CC(C)NC(=O)N(C)C[C@@H]1Oc2c(NC(=O)C3CCCCC3)cccc2C(=O)N([C@H](C)CO)C[C@@H]1C`, the relative growth was inactive: 0.986.
Then `CC(C)NC(=O)Nc1cccc2c1O[C@H](CN(C)S(=O)(=O)c1ccc(Cl)cc1)[C@@H](C)CN([C@@H](C)CO)C2=O`, with inactive: 1.01; and `C[C@H](CO)N1C[C@H](C)[C@H](CN(C)C(=O)Nc2ccc(F)cc2)OCCCC[C@H](C)Oc2ccc(NS(=O)(=O)c3cccs3)cc2C1=O`, with inactive: 1.01.
As for `C[C@H](CO)N1C[C@H](C)[C@@H](CN(C)C(=O)Nc2ccccc2)Oc2ccc(NC(=O)C3CC3)cc2CC1=O`, the relative growth is inactive: 1.01.
The same measure for `COc1ccc(CN(C)C[C@H]2OCCCC[C@@H](C)Oc3ccc(NC(=O)Nc4ccc(F)cc4)cc3C(=O)N([C@@H](C)CO)C[C@@H]2C)cc1`: inactive: 0.988; for `COc1cccc(OC)c1NC(=O)N1[C@@H]2CC[C@@H](C2)[C@H]1c1nc2cccc(OCc3ccc(F)cc3)c2[nH]1`: inactive: 0.987.
Then `O=S(=O)(O)c1ccc2c(c1)cc(S(=O)(=O)O)c1nn(-c3ccc(/C=C/c4ccc(-n5nc6c(S(=O)(=O)O)cc7cc(S(=O)(=O)O)ccc7c6n5)cc4S(=O)(=O)O)c(S(=O)(=O)O)c3)nc12`, with inactive: 1.03.
Then `NC(=O)CSc1nc(N)cc(N)n1`, with inactive: 0.985; and `CCS(=O)(=O)Nc1ccc2c(c1)C(=O)N(C)[C@@H]1CC[C@@H](CC(=O)NCCOC)O[C@@H]1CO2`, with inactive: 0.999.
Turning to `C[C@H]1CN([C@@H](C)CO)C(=O)c2ccccc2-c2ccccc2CO[C@H]1CN(C)Cc1ccc(C(F)(F)F)cc1`, the relative growth was inactive: 1.
Take `C[C@@H]1CN([C@@H](C)CO)C(=O)Cc2cc(NS(=O)(=O)c3ccccc3)ccc2O[C@H]1CN(C)Cc1ccc(Cl)c(Cl)c1`: the relative growth is inactive: 1.04.
Then `Cc1ccc(S(=O)(=O)Nc2ccc3c(c2)C(=O)N([C@@H](C)CO)C[C@H](C)[C@H](CN(C)S(=O)(=O)c2cccs2)O3)cc1`, with inactive: 1.02; and `Cc1ccc(S(=O)(=O)N(C)C[C@H]2OCCCC[C@@H](C)Oc3ccc(NC(=O)NC4CCCCC4)cc3C(=O)N([C@@H](C)CO)C[C@H]2C)cc1`, with inactive: 1.01.
Then `Cc1noc(C)c1NC(=O)N(C)C[C@H]1OCCCC[C@H](C)Oc2ccc(NS(=O)(=O)c3ccc(Cl)cc3)cc2C(=O)N([C@@H](C)CO)C[C@H]1C`, with inactive: 0.979; and `COc1ccc(CN(C)C[C@H]2OCCCC[C@H](C)Oc3ccc(NC(=O)CCC(F)(F)F)cc3C(=O)N([C@H](C)CO)C[C@H]2C)cc1`, with inactive: 1.02.
The same measure for `C[C@H]1CN([C@@H](C)CO)S(=O)(=O)c2ccc(C#CCN(C)C)cc2O[C@H]1CN(C)S(C)(=O)=O`: inactive: 1.03; for `C[C@H]1CCCCO[C@H](CN(C)C(=O)Nc2ccc3c(c2)OCO3)[C@@H](C)CN([C@@H](C)CO)C(=O)c2cc(NC(=O)NC3CCCCC3)ccc2O1`: inactive: 1.03.
`C[C@H](CO)N1C[C@H](C)[C@H](CN(C)C(=O)Nc2ccccc2C(F)(F)F)OCc2ccccc2-c2ccccc2C1=O`: the relative growth was inactive: 0.987.
With `O=C(O)c1ccc(O)c(C(=O)O)c1`, the relative growth was inactive: 0.997.
Turning to `COc1ccc(S(=O)(=O)N(C)C[C@@H]2Oc3ccc(NC(=O)Cc4ccccc4)cc3C(=O)N([C@H](C)CO)C[C@H]2C)cc1`, the relative growth is inactive: 0.987.
For `COc1ccccc1S(=O)(=O)N[C@H]1C=C[C@H](CC(=O)N2CCOCC2)O[C@H]1CO`, the relative growth was inactive: 0.998.
The same measure for `O=C(C[C@@H]1CC[C@@H]2[C@H](COC[C@H](O)CN2S(=O)(=O)c2ccccc2)O1)NCCN1CCCC1`: inactive: 0.982; for `C[C@@H]1CN([C@@H](C)CO)C(=O)c2cc(NS(=O)(=O)c3cn(C)cn3)ccc2O[C@H]1CN(C)Cc1ccncc1`: inactive: 0.981.
`C[C@@H]1CCCCO[C@@H](CN(C)CC2CCCCC2)[C@H](C)CN([C@H](C)CO)C(=O)c2cc(NC(=O)c3ccccc3)ccc2O1`: the relative growth is inactive: 0.99.
With `COc1ccc(NC(=O)N(C)C[C@H]2Oc3c(NS(C)(=O)=O)cccc3C(=O)N([C@@H](C)CO)C[C@@H]2C)cc1`, the relative growth is inactive: 0.981.
The same measure for `C[C@@H](O)[C@@H](O)[C@H]1CNc2[nH]c(N)nc(=O)c2N1`: inactive: 0.977; for `COc1ccc(NC(=O)Nc2cccc3c2O[C@H](CN(C)Cc2ccc(Cl)c(Cl)c2)[C@@H](C)CN([C@H](C)CO)C3=O)cc1`: inactive: 1; for `COc1ccc(NC(=O)Nc2cccc3c2O[C@H](CN(C)Cc2ccc(-c4ccccc4)cc2)[C@@H](C)CN([C@@H](C)CO)C3=O)cc1`: inactive: 1.03.
Then `CCC[C@@H](O)C#Cc1cnc2c(c1)C(=O)N([C@H](C)CO)C[C@H](C)[C@H](CN(C)S(=O)(=O)c1ccccc1)O2`, with inactive: 0.996; and `COc1ccccc1NC(=O)N(C)C[C@@H]1Oc2ncc(C#CC(C)C)cc2C(=O)N([C@@H](C)CO)C[C@@H]1C`, with inactive: 0.993.
Then `CC(C)N1C[C@H](C)[C@@H](CN(C)Cc2ccc(Oc3ccccc3)cc2)Oc2c(cccc2-c2cn(-c3ccncc3)nn2)C1=O`, with inactive: 1.02; and `C[C@@H]1CN([C@H](C)CO)C(=O)c2cc(N(C)C)ccc2O[C@@H](C)CCCCO[C@@H]1CN(C)CC1CCCCC1`, with inactive: 0.988; and `N#Cc1cc(F)cc(Oc2ccc(S(=O)(=O)C(F)F)c3c2CC(F)(F)[C@@H]3O)c1.N#Cc1cc(F)cc(Oc2ccc(S(=O)(=O)C(F)F)c3c2CC(F)(F)[C@H]3O)c1`, with inactive: 1.
As for `CO[C@@H]1CN(C)C(=O)c2ccc(NC(=O)c3cc(C)on3)cc2OC[C@@H](C)N(C(=O)C2CCC2)C[C@H]1C`, the relative growth was inactive: 0.987.
Then `C[C@H](CO)N1C[C@H](C)[C@@H](CN(C)S(=O)(=O)c2cn(C)cn2)Oc2ccc(N(C)C)cc2CC1=O`, with inactive: 1.01; and `CC(C)N1C[C@@H](C)[C@H](CN(C)Cc2ccc(Oc3ccccc3)cc2)Oc2c(cccc2N(C)C(=O)c2ccncc2)C1=O`, with inactive: 1.01.
The same measure for `COc1nc2ccc(Br)cc2cc1[C@@H](c1ccccc1)[C@@](O)(CCN(C)C)c1cccc2ccccc12`: inactive: 1.01.
Then `C[C@@H]1CCCCO[C@@H](CN(C)S(=O)(=O)c2ccc(Cl)cc2)[C@@H](C)CN([C@@H](C)CO)C(=O)c2cc(NS(=O)(=O)c3ccc(F)cc3)ccc2O1`, with inactive: 1.02.
Regarding `C[C@@H]1CN([C@H](C)CO)C(=O)c2cccc(NC(=O)Nc3cccc4ccccc34)c2O[C@@H]1CN(C)Cc1ccc(C(F)(F)F)cc1`, the relative growth is inactive: 1.03.
Turning to `CC(C)(O)C#Cc1ccc([C@H]2[C@H]3CN(S(C)(=O)=O)CCCCN3[C@H]2CO)cc1`, the relative growth was inactive: 0.996.
For `C[C@@H]1CN([C@@H](C)CO)C(=O)c2cc(NC(=O)Nc3ccccc3)ccc2O[C@@H](C)CCCCO[C@H]1CN(C)Cc1ccc2c(c1)OCO2`, the relative growth was inactive: 0.987.
With `COc1ccc(NC(=O)N(C)C[C@@H]2OCc3cnnn3CCCC(=O)N([C@@H](C)CO)C[C@@H]2C)c(OC)c1`, the relative growth is inactive: 0.933.
Consider `C[C@H]1CCCCO[C@H](CN(C)C(=O)c2ccccc2)[C@@H](C)CN([C@@H](C)CO)C(=O)c2cc(NC(=O)CCC(F)(F)F)ccc2O1`, for which the relative growth was inactive: 1.01.
Then `C[C@H]1CN([C@@H](C)CO)C(=O)c2c(c3ccccc3n2C)-c2ccccc2CO[C@H]1CN(C)C(=O)Nc1cccc(F)c1`, with inactive: 1.01; and `CCCC(=O)Nc1ccc2c(c1)C(=O)N(C)C[C@@H](OC)[C@@H](C)CN(S(=O)(=O)c1cn(C)cn1)[C@H](C)CO2`, with inactive: 0.992.
Turning to `CN1C(=O)c2cc(NC(=O)C3CCCC3)ccc2OC[C@@H]2O[C@H](CC(=O)NCCc3ccncc3)CC[C@H]21`, the relative growth is inactive: 1.02.
Then `C[C@@H]1CN([C@H](C)CO)C(=O)Cc2cc(NC(=O)Nc3cccc4ccccc34)ccc2O[C@@H]1CN(C)C(=O)Nc1ccc2c(c1)OCO2`, with inactive: 0.987; and `C[C@@H]1CN([C@@H](C)CO)C(=O)c2cc(NC(=O)CCCN(C)C)ccc2O[C@@H](C)CCCCO[C@@H]1CN(C)C`, with inactive: 0.991; and `C[C@@H]1CN([C@@H](C)CO)C(=O)c2cc(-c3cccc(C#N)c3)cnc2O[C@@H]1CN(C)C(=O)c1cnccn1`, with inactive: 0.997.
The same measure for `Cc1[nH]c2ncnn2c(=O)c1CCC(=O)O`: inactive: 1.01; for `C[C@@H]1CN([C@@H](C)CO)C(=O)Cc2cc(NS(C)(=O)=O)ccc2O[C@H]1CN(C)C(=O)Nc1ccc(F)cc1`: inactive: 0.97; for `Cc1cc(O)c2c(c1)C(=O)c1c(c(O)cc(O)c1-c1c(O)cc(O)c3c1C(=O)c1cc(C)cc(O)c1C3=O)C2=O`: inactive: 1.03.
With `Cc1ccc(S(=O)(=O)Nc2ccc3c(c2)C(=O)N([C@H](C)CO)C[C@H](C)[C@H](CN(C)C(=O)Nc2ccc(C(F)(F)F)cc2)OCCCC[C@@H](C)O3)cc1`, the relative growth is inactive: 0.998.
Take `c1csc([C@@H]2CNCCN2)c1`: the relative growth was inactive: 0.992.
Then `C[C@@H]1CN([C@@H](C)CO)C(=O)Cc2cc(NC(=O)Cn3cnnn3)ccc2O[C@@H]1CN(C)S(=O)(=O)c1cccs1`, with inactive: 0.975.
As to `COc1ccc(NC(=O)N(C)C[C@@H]2Oc3ccc(NS(=O)(=O)c4cn(C)cn4)cc3C(=O)N([C@@H](C)CO)C[C@@H]2C)cc1`, the relative growth is inactive: 0.97.
